# Some of the results follow.
# Columns and labels:
# Test in all cases: glycan array binding signal (z-score within array); higher = stronger binding
# Settings in all cases: glycan notation: IUPAC condensed, linker removed
# [1] = target: Neu5Ac(a2-6)Gal(b1-4)GlcNAc(b1-6)GalNAc
# In short: (§1)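 Glycan array data were curated from 3228 arrays in the Consortium for Functional Glycomics database and kept only where the protein sequence was available. Glycan names were converted to IUPAC-condensed notation, and columns mapping to the same glycan were averaged. The binding signal is a within-array Z-score, averaged across arrays of the same protein sequence at different concentrations or buffers and across linkers. Negative Z-scores can be read as non-binding.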
# [2] = target: Neu5Ac(a2-6)Gal(b1-4)GlcNAc(b1-6)[Gal(b1-3)GlcNAc(b1-3)]Gal(b1-4)Glc
# In short: as §1
# [3] = target: Neu5Ac(a2-6)Gal(b1-4)GlcNAc(b1-6)[Gal(b1-3)]GalNAc
# In short: as §1
# [4] = target: Neu5Ac(a2-6)Gal(b1-4)GlcNAc6S
# In short: as §1
# [5] = target: Neu5Ac(a2-6)GalNAc
# In short: as §1
# [6] = target: Neu5Ac(a2-6)GalNAc(b1-4)GlcNAc
# In short: as §1
# [7] = target: Neu5Ac(a2-6)GalNAc(b1-4)GlcNAc6S
# In short: as §1
# [8] = target: Neu5Ac(a2-6)GlcNAc(b1-4)GlcNAc
# In short: as §1
# [9] = target: Neu5Ac(a2-6)GlcNAc(b1-4)GlcNAc(b1-4)GlcNAc
# In short: as §1
# [10] = target: Neu5Ac(a2-8)Neu5Ac
# In short: as §1
# [11] = target: Neu5Ac(a2-8)Neu5Ac(a2-3)Gal(b1-3)GalNAc(b1-4)[Neu5Ac(a2-3)]Gal(b1-4)Glc
# In short: as §1
# [12] = target: Neu5Ac(a2-8)Neu5Ac(a2-3)Gal(b1-3)GalNAc(b1-4)[Neu5Ac(a2-8)Neu5Ac(a2-3)]Gal(b1-4)Glc
# In short: as §1
# [13] = target: Neu5Ac(a2-8)Neu5Ac(a2-3)Gal(b1-4)Glc
# In short: as §1
# [14] = target: Neu5Ac(a2-8)Neu5Ac(a2-3)Gal(b1-4)GlcNAc
# In short: as §1
# [15] = target: Neu5Ac(a2-8)Neu5Ac(a2-3)[Gal(b1-3)GalNAc(b1-4)]Gal(b1-4)Glc
# In short: as §1
# [16] = target: Neu5Ac(a2-8)Neu5Ac(a2-3)[GalNAc(b1-4)]Gal(b1-4)Glc
# In short: as §1
# [17] = target: Neu5Ac(a2-8)Neu5Ac(a2-8)Neu5Ac
# In short: as §1
# [18] = target: Neu5Ac(a2-8)Neu5Ac(a2-8)Neu5Ac(a2-3)Gal(b1-4)Glc
# In short: as §1
# [19] = target: Neu5Ac(a2-8)Neu5Ac(a2-8)Neu5Ac(a2-3)[Gal(b1-3)GalNAc(b1-4)]Gal(b1-4)Glc
# In short: as §1
# [20] = target: Neu5Ac(a2-8)Neu5Ac(a2-8)Neu5Ac(a2-3)[GalNAc(b1-4)]Gal(b1-4)Glc
# In short: as §1
# [21] = target: Neu5Ac(a2-8)Neu5Ac(a2-8)Neu5Ac(a2-8)Neu5Ac(a2-3)[GalNAc(b1-4)]Gal(b1-4)Glc
# In short: as §1
# [22] = target: Neu5Ac(a2-8)Neu5Gc(a2-3)Gal(b1-4)GlcNAc
# In short: as §1
# [23] = target: Neu5Ac(b2-6)Gal(b1-4)GlcNAc
# In short: as §1
# [24] = target: Neu5Ac(b2-6)GalNAc
# In short: as §1
# [25] = target: Neu5Ac9Ac(a2-3)Gal(b1-3)GlcNAc
# In short: as §1
# [26] = target: Neu5Ac9Ac(a2-3)Gal(b1-4)GlcNAc
# In short: as §1
# [27] = target: Neu5Ac9Ac(a2-6)Gal(b1-4)GlcNAc
# In short: as §1
# [28] = target: Neu5Gc(a2-3)Gal(b1-3)GlcNAc
# In short: as §1
# [29] = target: Neu5Gc(a2-3)Gal(b1-3)[Fuc(a1-4)]GlcNAc
# In short: as §1
# [30] = target: Neu5Gc(a2-3)Gal(b1-4)Glc
# In short: as §1
# [31] = target: Neu5Gc(a2-3)Gal(b1-4)GlcNAc
# In short: as §1
# [32] = target: Neu5Gc(a2-3)Gal(b1-4)GlcNAc(b1-3)Gal(b1-4)GlcNAc(b1-2)Man(a1-3)[Neu5Gc(a2-3)Gal(b1-4)GlcNAc(b1-3)Gal(b1-4)GlcNAc(b1-2)Man(a1-6)]Man(b1-4)GlcNAc(b1-4)GlcNAc
# In short: as §1
# [33] = target: Neu5Gc(a2-3)Gal(b1-4)[Fuc(a1-3)]GlcNAc
# In short: as §1
# [34] = target: Neu5Gc(a2-6)Gal(b1-4)GlcNAc
# In short: as §1
# [35] = target: Neu5Gc(a2-6)GalNAc
# In short: as §1
# [36] = target: Neu5Gc(a2-8)Neu5Ac(a2-3)Gal(b1-4)GlcNAc
# In short: as §1
# [37] = target: Neu5Gc(a2-8)Neu5Gc(a2-3)Gal(b1-4)GlcNAc
# In short: as §1
# [38] = target: Neu5Gc(a2-8)Neu5Gc(a2-3)Gal(b1-4)GlcNAc(b1-3)Gal(b1-4)GlcNAc
# In short: as §1
binder,measurement,setting,value
SP8524D-bot-399-27-399 (Bacteroides ovatus) (protein) DAKYDTLDTHAYIEEALSSTSQKVTVQATGESFTTLNVHLSNLSSTDNHYKLVTDQSVLDTYNHINGTGYIMLPKDYYTLPETITVKAGQYAADALSIALKAFSQEMMKSGESYALPVKLVLQDGSISPMENTGTFVILAESIIEFSAPMFVGAPSLKANKFTESPETYSQYTIEVRFQVANTADRDRAVFKNGGDDANFILLRFEDPQSDNENYKAHSLVQIVGRNRLYLNPSNSFKPNEWQHLALVCDGSNYRLYINGVDSGVLSIPTGATTFSDVNWFCLGDDSYSRWGNCKILMSEARIWSVVRSASQIQNNMTQVSPKSVGLEAYWRFNEGQGNVFEDATGKGHTLTTSATPTWIDGILSTDKSTEWK,glycan array binding signal (z-score),[1],-0.332
same,glycan array binding signal (z-score),[2],-0.38
same,glycan array binding signal (z-score),[3],0.19
same,glycan array binding signal (z-score),[4],-0.415
same,glycan array binding signal (z-score),[5],-0.205
same,glycan array binding signal (z-score),[6],-0.221
same,glycan array binding signal (z-score),[7],-0.172
same,glycan array binding signal (z-score),[8],0.417
same,glycan array binding signal (z-score),[9],-0.544
same,glycan array binding signal (z-score),[10],0.166
same,glycan array binding signal (z-score),[11],0.085
same,glycan array binding signal (z-score),[12],0.08
same,glycan array binding signal (z-score),[13],-0.038
same,glycan array binding signal (z-score),[14],0.069
same,glycan array binding signal (z-score),[15],-0.188
same,glycan array binding signal (z-score),[16],0.232
same,glycan array binding signal (z-score),[17],-0.148
same,glycan array binding signal (z-score),[18],0.61
same,glycan array binding signal (z-score),[19],-0.261
same,glycan array binding signal (z-score),[20],-0.523
same,glycan array binding signal (z-score),[21],-0.07
same,glycan array binding signal (z-score),[22],0.056
same,glycan array binding signal (z-score),[23],-0.048
same,glycan array binding signal (z-score),[24],-0.019
same,glycan array binding signal (z-score),[25],0.37
same,glycan array binding signal (z-score),[26],-0.24
same,glycan array binding signal (z-score),[27],-0.246
same,glycan array binding signal (z-score),[28],0.096
same,glycan array binding signal (z-score),[29],-0.087
same,glycan array binding signal (z-score),[30],-0.032
same,glycan array binding signal (z-score),[31],-0.207
same,glycan array binding signal (z-score),[32],-0.124
same,glycan array binding signal (z-score),[33],-0.022
same,glycan array binding signal (z-score),[34],0.091
same,glycan array binding signal (z-score),[35],-0.234
same,glycan array binding signal (z-score),[36],0.018
same,glycan array binding signal (z-score),[37],-0.464
same,glycan array binding signal (z-score),[38],0.29

# From the supplement of paper PMC8728848
